The values that follow come from publication PMC6919601, “Identification of Plasmodium dipeptidyl aminopeptidase allosteric inhibitors by high throughput screening” (PLoS ONE, 2019).

Molecules are shown by their SMILES. About 230 (0.21%) of roughly 110,000 compounds showed an effect of 50% or more. The list shows a part of the results.
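Note: 30 min substrate incubation versus DMSO and 10 µM JCP410 controls.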

Sequence of DPAP1 (Q8IIJ9 whole entry, looked up): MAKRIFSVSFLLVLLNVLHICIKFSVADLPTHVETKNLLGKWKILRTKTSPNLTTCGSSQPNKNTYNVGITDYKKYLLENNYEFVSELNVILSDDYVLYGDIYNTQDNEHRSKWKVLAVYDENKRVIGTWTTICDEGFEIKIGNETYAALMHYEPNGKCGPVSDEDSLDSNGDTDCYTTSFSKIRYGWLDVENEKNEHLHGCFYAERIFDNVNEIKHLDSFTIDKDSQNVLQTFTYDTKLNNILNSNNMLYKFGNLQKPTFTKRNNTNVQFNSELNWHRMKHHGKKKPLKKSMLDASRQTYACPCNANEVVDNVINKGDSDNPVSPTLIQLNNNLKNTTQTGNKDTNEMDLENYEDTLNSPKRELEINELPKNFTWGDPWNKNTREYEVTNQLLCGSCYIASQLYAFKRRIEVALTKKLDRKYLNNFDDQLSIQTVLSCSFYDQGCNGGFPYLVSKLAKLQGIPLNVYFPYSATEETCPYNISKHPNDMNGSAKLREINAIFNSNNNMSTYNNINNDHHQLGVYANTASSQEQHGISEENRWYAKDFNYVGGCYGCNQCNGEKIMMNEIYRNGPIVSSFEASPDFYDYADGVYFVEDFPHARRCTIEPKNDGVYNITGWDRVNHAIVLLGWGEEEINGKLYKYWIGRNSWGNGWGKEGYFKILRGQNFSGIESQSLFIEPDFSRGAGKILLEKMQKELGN

The experiment has as its target DPAP1 (Plasmodium falciparum, UniProt Q8IIJ9). Briefly: primary screen, percent inhibition; read by cleavage of a fluorogenic dipeptide substrate; higher = more effect of the substance. Details: species or system P. falciparum D10 trophozoite lysates; single well.
With `O=C(O)c1cccc([N+](=O)[O-])c1C(=O)Nc1ccc2ccccc2c1`, the “% Inhibition @ 10 uM” value is reported as -1.42%. Take `Cc1cccc(N2CCc3c2nc2ccccc2c3N)c1`: the “% Inhibition @ 10 uM” value came out at 0.847%.

Consider `CCOC(=O)c1c(C)[nH]c(C)c1S(=O)(=O)NCc1ccccn1`, for which the “% Inhibition @ 10 uM” value is reported as -0.349%. To `O=C(O)c1ccc(Oc2ccc(Oc3ccc(C(=O)O)c(C(=O)O)c3)cc2)cc1` belongs -0.415%; to `CCOc1ccc2c(=O)c(-c3ccccc3)c(C(F)(F)F)oc2c1`, 4.49%. To `Cc1cccc(N2N=C(c3ccccc3)CC2c2ccccc2)c1` (centres unmarked) belongs -9.98%; to `COc1nc(-c2ccccc2)cc(-c2ccccc2)n1`, -3.77%. To `CC1(C)CC(=O)c2cc(OCC(=O)O)ccc2O1` belongs 16.8%; to `COc1cc(CNc2nc3c(C)cc(C)cc3s2)ccc1O`, 3.93%; to `Cc1cc(C)n2nc(SCc3cc(=O)n4cc(Br)ccc4n3)nc2n1`, -0.406%. For the compound `O=C1N/C(=C/c2cn(Cc3ccccc3)c3ccccc23)C(=O)N1Cc1ccccc1F`, the “% Inhibition @ 10 uM” value is reported as -5.51%. Then `Cc1cc(C)n2nc(SCC(=O)NC(C)CCc3ccccc3)nc2n1` (centres unmarked), with -2.26%; and `COc1ccc(CCC(=O)Nc2ccc(CC#N)cc2)cc1`, with 1.57%; and `COc1ccc(S(=O)(=O)N2CCN(Cc3ccc(F)cc3)CC2)cc1`, with 1.28%.

As to `Cc1[nH]nc2c1C(c1ccc3ccccc3c1)C(C#N)=C(N)O2` (centres unmarked), the “% Inhibition @ 10 uM” value was found to be 2.36%.

For the compound `N#C/C(=C\Nc1ccc(C(N)=O)cc1)c1nc(-c2ccc(F)cc2)cs1`, the “% Inhibition @ 10 uM” value is on record as -9.05%. To `CCCCSc1nnc2c(n1)-c1cccc3cccc-2c13` belongs 9.51%; to `Cc1c2c(cc3c4c(c(=O)oc13)CCC4)CN(Cc1ccccc1)CO2`, -2.57%; to `CN1CCC(N(C)Cc2ccc([N+](=O)[O-])s2)CC1`, -3.71%.

On to `Cc1ccc(-c2ncnc3c(C#N)c4ccccn4c23)cc1`, for which the “% Inhibition @ 10 uM” value is on record as -4.19%. Then `O=C(O)c1cc2ccccc2c(=O)s1`, with -3.76%; and `COc1ccc(/C=C2/C(=O)N(c3ccc([N+](=O)[O-])cc3)N=C2C)c(OC)c1`, with -0.999%; and `CCOC(=O)N1CCN(C(=O)c2cc(S(=O)(=O)N3CCCC3)c[nH]2)CC1`, with -7.19%. Turning to `COc1cc(C2C3=C(O)CC(C)(C)CC3=NC3=C2C(=O)CC(C)(C)C3)cc(Br)c1OC` (centres unmarked), the “% Inhibition @ 10 uM” value was 3.96%.

For the compound `CC1CC(C)CN(C(=O)c2ccc(CNS(=O)(=O)c3ccc(F)cc3)cc2)C1` (centres unmarked), the “% Inhibition @ 10 uM” value is -0.971%. `O=C(CCC(=O)n1ncc2ccccc21)N1CCCCC1`: the “% Inhibition @ 10 uM” value stood at 5.42%.

For `COc1ccc(C(=O)NCCSCc2ccco2)cc1OC`, the “% Inhibition @ 10 uM” value is -3.14%.

For `CC(C)CC(C(=O)NCC#N)c1ccc(NC(=O)Nc2ccncc2)cc1` (centres unmarked), the “% Inhibition @ 10 uM” value is 2.22%. To `CCS(=O)(=O)N1CCC2(CC1)OC(=O)C(C)=C2C(=O)N1CCN(C2CCCCC2)CC1` belongs -2.68%. In the case of `COc1cccc(-c2noc(C(=O)NCCCn3ccnc3)n2)c1`, the “% Inhibition @ 10 uM” value stood at 4.58%. As to `CCCCNC(=O)Nc1ccccc1C(=O)Nc1ccc(OC)cc1`, the “% Inhibition @ 10 uM” value is on record as -1.11%. `CCOc1ccccc1/C=C1/N=C(c2cccc(Cl)c2Cl)OC1=O`: the “% Inhibition @ 10 uM” value is recorded as -0.77%. Regarding `O=C(O)c1ccc(N2C(=O)C3CCCCC3C2=O)cc1` (centres unmarked), the “% Inhibition @ 10 uM” value is -1.22%. Take `CN(Cc1ccccc1)C(=O)NCc1noc2ccccc12`: the “% Inhibition @ 10 uM” value was -4.04%.

Take `COc1ccc(-c2nc(CS(=O)CC(=O)N3CCN(C)CC3)c(C)o2)cc1` (centres unmarked): the “% Inhibition @ 10 uM” value is reported as -4.71%. To `COc1ccc(-c2nnc3ccc(SCC(=O)Nc4nnc(C)s4)nn23)cc1OC` belongs -5.05%; to `CC(C)(C)NC(=O)c1ccccc1`, 4.54%; to `COc1ccc(CC(=O)N2CCN(Cc3noc(CCC(=O)N4CCOCC4)n3)CC2)cc1`, 3.8%.

Regarding `CSc1nc(-c2ccccc2)nc(Nc2nc(C)cc(C)n2)c1C(C)=O`, the “% Inhibition @ 10 uM” value is listed as -1.82%. For the compound `Cc1ccc(C(=O)Nc2cccnc2)cc1C`, the “% Inhibition @ 10 uM” value worked out at 2.44%. To `CC1CC(C)CN(C(=O)CCCc2nnc3n(C)c(=O)c4sccc4n23)C1` (centres unmarked) belongs -0.326%. Then `Cc1ccc2c(c1)C1(C(=O)N2)C(C#N)=C(N)OC2=C1C(=O)CCC2` (centres unmarked), with -0.725%; and `COc1c(Cl)cc(Cl)cc1C1C(C#N)=C(N)Oc2[nH]nc(-c3cccs3)c21` (centres unmarked), with -6.37%. To `CCC1CCCCN1C(=O)Cn1c(SCc2ccccc2C)nc2ccncc21` (centres unmarked) belongs 5.73%. In the case of `CCOC(=O)c1oc2ccc(S(=O)(=O)Nc3noc4ccccc34)cc2c1C`, the “% Inhibition @ 10 uM” value was found to be 3.77%. As to `COc1ccc2[nH]c3c(=O)n(CC(=O)NC4CCCCC4)c(=S)[nH]c3c2c1`, the “% Inhibition @ 10 uM” value is recorded as -7.65%. Then `O=C(N/C(=C\c1cccc(F)c1)C(=O)N1CCOCC1)c1ccccc1Br`, with -3.06%; and `CC(=O)Nc1nonc1N1C(=N)S/C(=C\c2ccc(-c3cccc(Cl)c3Cl)o2)C1=O`, with -2.85%. With `CC1CCN(c2ccc3nonc3c2[N+](=O)[O-])CC1`, the “% Inhibition @ 10 uM” value is listed as 0.827%.

For `CC1CCCC(NC(=O)c2cccc3c2SCCC3=O)C1C` (centres unmarked), the “% Inhibition @ 10 uM” value is on record as -1.08%.

With `COc1ccc(C(=O)Nc2ccc(S(N)(=O)=O)cc2)cc1`, the “% Inhibition @ 10 uM” value is -1.28%. As to `COc1cccc(OCCNC(=O)c2ccccc2Sc2ccccc2C#N)c1`, the “% Inhibition @ 10 uM” value is listed as 0.0719%. In the case of `CC1CCCC(Nc2cnn(C34CC5CC(CC(C5)C3C(=O)O)C4)c(=O)c2Cl)C1C` (centres unmarked), the “% Inhibition @ 10 uM” value was determined as 1.15%. To `CCc1ccc(C(=O)c2cc3ccc(O)cc3oc2=O)cc1` belongs 2.12%. With `C=CCNC(=O)c1cc2c(=O)n3cc(C)ccc3nc2n(CCN2CCOCC2)c1=N`, the “% Inhibition @ 10 uM” value is on record as -1.47%. Then `O=C1C(SCc2ccccc2)=C/C(=N/S(=O)(=O)c2cccs2)c2ccccc21`, with 14.7%. To `CCc1ccc(-n2nnc(-c3nc(-c4ccc(OC)cc4)no3)c2N)cc1` belongs -3.3%; to `COc1ccc(CCNC(=O)CCCCCNc2nc(S)nc3ccccc23)cc1OC`, 1.42%. For the compound `COc1cc(C2CC(=O)OC3=C2C(=O)c2ccccc2C3=O)ccc1O` (centres unmarked), the “% Inhibition @ 10 uM” value is given as 3.47%. To `Cc1ccc(S(=O)(=O)CC(C)N2CCCCC2)c(S(=O)(=O)CC(C)N2CCCCC2)c1` (centres unmarked) belongs -6.95%; to `Cc1nn(-c2ccc(Cl)cc2)c(O)c1C=C1C(=O)NC(=O)NC1=O`, 6.5%. Then `CCOc1ccc(/C=C(\NC(=O)c2ccccc2)C(=O)N2CCN(C)CC2)cc1`, with -3.19%.

Take `CS(=O)(=O)N(CC(=O)N1CCN(c2cccc(Cl)c2)CC1)c1ccc(F)cc1`: the “% Inhibition @ 10 uM” value is given as 2.49%. On to `O=C(c1ccc2c(c1)OCO2)N(Cc1nc(-c2ccccc2)no1)C1CCCCC1`, for which the “% Inhibition @ 10 uM” value is 2.14%. `O=C(c1cc2nc(-c3ccc4c(c3)OCO4)cc(C(F)(F)F)n2n1)N1CCCCC1c1cccnc1` (centres unmarked): the “% Inhibition @ 10 uM” value is listed as 0.9%. In the case of `Cc1ccc(-c2nnc3sc(-c4cccnc4)nn23)cc1`, the “% Inhibition @ 10 uM” value was -0.666%. To `Cc1ccccc1-n1nc2c(c1NC(=O)C13CC4CC(CC(C4)C1)C3)CS(=O)(=O)C2` belongs -5.15%; to `CC(C)N(Cc1ccccc1)C(=O)c1cccc(Cl)c1`, -2.21%. To `COc1ccc(Cl)cc1NC(=O)c1c(-c2ccccc2)noc1C` belongs -4.14%; to `CCOCCc1nnc(NC(=O)c2cn(-c3ccccc3)nc2-c2ccccc2)s1`, 0.655%; to `Cc1sc2ncn(CC(=O)NCCC3=CCCCC3)c(=O)c2c1S(=O)(=O)N1CCCCC1`, 11.4%. For `COC(=O)/C=C1\SC(NC(=O)c2ccc(Cl)cc2)=NC1=O`, the “% Inhibition @ 10 uM” value is 1.91%. To `OC(CN1CCCCCC1)c1ccccc1` (centres unmarked) belongs 0.132%; to `Oc1cc2cc(O)nc(O)c2c(O)n1`, 6.24%. As to `O=C1CC(c2ccc(F)cc2)c2cc3c(cc2N1)OCO3` (centres unmarked), the “% Inhibition @ 10 uM” value was found to be 2.17%. In the case of `CCCOC(=O)CNc1nnc(O)nc1O`, the “% Inhibition @ 10 uM” value is listed as 5.02%.

In the case of `CC(C)(C)OC(=O)N1CCC(C(=O)N[C@@H](Cc2ccc3ccccc3c2)C(=O)N[C@@H](CCCCNC(=O)OCc2ccccc2)C(=O)CO)CC1`, the “% Inhibition @ 10 uM” value is listed as 2.22%. Then `O=C1SCCC1NS(=O)(=O)c1ccc(Cl)cc1` (centres unmarked), with 5.43%; and `O=C(NC1(C(F)(F)F)C(=O)Nc2c1c(=O)[nH]c(=O)n2-c1ccc(F)cc1)c1ccc(F)cc1` (centres unmarked), with -3.34%. For `O=C(CSC1CC(=O)N(c2ccc(Br)cc2)C1=O)Nc1cccc(F)c1` (centres unmarked), the “% Inhibition @ 10 uM” value was 5.39%. Then `O=C(CN(c1cccc(Br)c1)S(=O)(=O)c1ccccc1)Nc1cccnc1`, with -3.53%. Then `Cc1nc2nc(CNC(=O)OC(C)(C)C)nn2c(C)c1CCC(=O)NC1CCCCC1`, with -0.447%; and `Cc1nnc(SCC(=O)N2CCCCCC2)c2nn(-c3ccccc3)c(C)c12`, with -8.68%.

In the case of `COc1cc(C(=O)n2cnc3ccccc32)cc(OC)c1OC`, the “% Inhibition @ 10 uM” value was -0.48%.

Take `COCc1[nH]nc2c1C1(CCN(C(=O)OC(C)(C)C)CC1)C(C#N)=C(N)O2`: the “% Inhibition @ 10 uM” value is 5.87%. With `CCOc1ccccc1NC1=C(Cl)C(=O)N(c2ccc(OC)cc2)C1=O`, the “% Inhibition @ 10 uM” value is -2.77%. On to `COC(=O)c1sccc1NC(=O)c1noc2c1CCCC2`, for which the “% Inhibition @ 10 uM” value was -8.16%. To `Cc1c(Cl)cccc1-n1nnc(-c2nc(-c3ccccc3)no2)c1N` belongs 3.22%; to `O=C(NCCc1ccccc1)c1ccco1`, -1.98%. Turning to `O=C(Nc1ccc(F)cc1)c1cccc(C(=O)Nc2ccc(F)cc2)c1`, the “% Inhibition @ 10 uM” value is given as 5.06%.

Turning to `O=C(O)CCCCCN1C(=O)C2C3c4ccccc4C(c4ccccc43)C2C1=O` (centres unmarked), the “% Inhibition @ 10 uM” value is recorded as -4.76%. Then `CC1CCCCC1NC(=O)C1CCCN(S(C)(=O)=O)C1` (centres unmarked), with -2.99%. As for `COc1cccc(C(=O)Nc2sc3c(c2C(N)=O)CCCCCC3)c1`, the “% Inhibition @ 10 uM” value is listed as -5.84%. Then `Cc1oc(-c2ccccc2F)nc1CS(=O)CC(=O)NCc1cccnc1` (centres unmarked), with -1.05%; and `COc1ccccc1C1C(C#N)=C(N)Oc2cc(N)ccc21` (centres unmarked), with -2%; and `Cc1oc(-c2cccc(Cl)c2)nc1CN1CCCC(C(=O)NC(C)C)C1` (centres unmarked), with 2.37%.

On to `O=C(/C=C/c1ccc2c(c1)OCO2)/C=C/c1ccc2c(c1)OCO2`, for which the “% Inhibition @ 10 uM” value is -3.74%. Consider `N#CC1=C(N)Oc2c(oc(CO)cc2=O)C1c1ccccc1Br` (centres unmarked), for which the “% Inhibition @ 10 uM” value is -2.77%.
